Our source for the binding signal values is article PMC12136788.

The list shows a part of the results.

T1: UNK ZnF1-3 (human, UniProt Q9C0B0 31-174)
T1 sequence: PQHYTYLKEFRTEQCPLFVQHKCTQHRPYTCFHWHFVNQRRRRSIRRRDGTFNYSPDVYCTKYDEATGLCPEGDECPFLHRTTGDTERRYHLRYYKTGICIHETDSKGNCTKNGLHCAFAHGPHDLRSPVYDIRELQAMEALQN

B1: 153595797_153595917_4147_3pUTR_ENSMUSG00000027479_ENSMUST00000028981|mouse|control|control (ssRNA)
RNA: GGGAGUUCUACAGUCCGACGAUCAGAGUGUGAGGCCCUUCAGCCAACAUCAGAGCCCUUGAUUUGCAAACAAGAAAAAAACAAAAUAAAGCAAAGUAAGAGGUGGAUUAGAACCCUCACAUCUGAUGUCUCACUGACACGAUACAACAGAGGAUUGAGCAUCA
B2: chr19:36179134:36179135:+_ENSMUSG00000024800_ENSMUST00000025714|mus_hu|motif|central (ssRNA)
RNA: GGGAGUUCUACAGUCCGACGAUCUUGUUUAUCACUUACACAAAGGAGAAAUAACCAGUCUUUCUCUCUUAAAGUACAUCGGAAUUCAUUAAGCUGGCAGCCUUUUAAAAAGAUGCUUCACUAGGUUUCGUUUGUUGUUUUAAUCAACAGAGGAUUGAGCAUCA
B3: chr17:21094002:21094003:+_ENSMUSG00000007564_ENSMUST00000007708|mus_mus|motif|central (ssRNA)
RNA: GGGAGUUCUACAGUCCGACGAUCCAUGUAGCGAACACGCCAAGACUUGUCCUCAGCAGCCUGUCGCAAGGUGGGCAUCACGGAGGCCUCCAGGUCCUCCUGUGGCAGAAGCUGGGCAAUAUUCACACAUGCCUCCACUGCCAGCAACAGAGGAUUGAGCAUCA
B4: chr2:217001844:217001845:+_ENSG00000079246_ENST00000392132|hu_hu|hu_hu_hu_mus_False|18_18 (ssRNA)
RNA: GGGAGUUCUACAGUCCGACGAUCACCAACUUGAGGAUUAGAUCUUUUGUCAUAAGCAUAUCGGACGAUGGCGACCAUGUUUAACUCAUCCAAAGCAUGAACGAGAGAGGAAAGGGCAACUGCAGCUGCCUCAUCAUCCUUUGCCAACAGAGGAUUGAGCAUCA
B5: chr7:54106310:54106311:+_ENSMUSG00000063229_ENSMUST00000048209|mus_hu|FALSE|FALSE (ssRNA)
RNA: GGGAGUUCUACAGUCCGACGAUCCCUUUCCCCCAUUAGGUAACGGAAUCGGGCUGAAUCCAGAUUGCAACCGCUUCCAAUAACACGGUUUUUGGGAAAACCACUUAUCUUCCAAGCCACGUAGGUCAAGAUAUCCACUGGAUUCAACAGAGGAUUGAGCAUCA
B6: chr14:76904430:76904431:+_ENSMUSG00000022010_ENSMUST00000022587|mus_mus|mus_mus_mus_hu_True|38_48 (ssRNA)
RNA: GGGAGUUCUACAGUCCGACGAUCUGCAGCCAAAAACACCCUCGUGGAAAAAAAGAGGGAACACCAGCAGCCUUGUAUAAGCUAGAUAAAACCGCCUAGCUGUCUGCAGCCCAGGGAGAAACAGAAAACGGCAGCCCUAAUUUACAACAGAGGAUUGAGCAUCA
B7: chr1:63797873:63797874:+_ENSMUSG00000025962_ENSMUST00000128621|mus_mus|motif|central (ssRNA)
RNA: GGGAGUUCUACAGUCCGACGAUCAUCCUCUGGGGUGGCAUGAAUUUAAACAGUAAACAGACUUAGGAACACACAGCACUGCGGCUCUCUGCAUGUUUGUGGCAGAACUUGCAUCUACAUCAGAAAAUGAAAAUACUUGGGUCCCAACAGAGGAUUGAGCAUCA
B8: chr12:48362563:48362564:+_ENSG00000134291_ENST00000256686|hu_hu|hu_hu_hu_mus_False|18_68 (ssRNA)
RNA: GGGAGUUCUACAGUCCGACGAUCUCCGUCAAGCCCUUCGAUAGACCCUUGCGGGGGAAACUGUAAUAAUUCUAACUGGGGAAGGAAAAGAAACGCCAAAAACUUUCCAAAAAGCGGUUCAAAAAGCAGGCGGGAGGGGGAGGUCAACAGAGGAUUGAGCAUCA
B9: chr7:3608459:3608460:+_ENSMUSG00000035632_ENSMUST00000038913|mus_mus|FALSE|FALSE (ssRNA)
RNA: GGGAGUUCUACAGUCCGACGAUCGCUGGGCGUUGGAGAACUGGGGGGAUUUACAGGCAGUGGCACCAAGAGGCUGGGUCCCCCCGAGUUAUUCCCUGAGCCUGAAGCCACAUUCCCAGCCCCUGAUGGGGCUGCCGUACUGGACAACAGAGGAUUGAGCAUCA
B10: chr5:156566167:156566168:-_ENSG00000155868_ENST00000420343|hu_mus|FALSE|FALSE (ssRNA)
RNA: GGGAGUUCUACAGUCCGACGAUCAAGAUCUUCUAGCUUUUCUUCUCGUUUUAUACUCCCAGGACUUCUUAUUAAGAUGUCUAAAAGGUCUAAGAAAUUAAUCAGUAUAGACAUAUUGAGUUUUCUCAGCUCUUUCUUAUGAUCCAACAGAGGAUUGAGCAUCA
B11: chr4:138660994:138660995:-_ENSMUSG00000050608_ENSMUST00000143971|mus_hu|motif|central (ssRNA)
RNA: GGGAGUUCUACAGUCCGACGAUCGAAAUCAUGCUGACAGUUGGAAUAAGCCAUUCCUAAUCCCAUGCCAGAACCGAAGGCGGAUGGCCACAUUCUUCUUUUAAAGAAGGUAAGUGAGAAAACAAUUCCUAAUCCAAAACCAGUCAACAGAGGAUUGAGCAUCA
B12: chr8:26227902:26227903:+_ENSG00000221914_ENST00000315985|hu_mus|motif|central (ssRNA)
RNA: GGGAGUUCUACAGUCCGACGAUCGAGAAUGCCAGCCUAAUUCACUUUGUCUUGAAAUAUAUACAGAUUGUUUGUAGUUGCGGCAGCAAUGAUGUUUUCCUUGGGAUGCCAGGCUGUAUGAAGGAUUUUCUUGUUGAAGUCUAGCAACAGAGGAUUGAGCAUCA
B13: chr10:5807933:5807934:-_ENSG00000057608_ENST00000380191|hu_mus|FALSE|FALSE (ssRNA)
RNA: GGGAGUUCUACAGUCCGACGAUCGGGCUUACAGUAUUGAUUUCAUACAAUAUACAUUAUUUGCCAAAUUUUAAGUUUGUCCUAAUUAUUACAUAAUAUGUACUGCUGUUAGUCUUCUCCAUAAAUGUCAUUCUUCUUGCGCUUCAACAGAGGAUUGAGCAUCA
B14: chr3:133545784:133545785:-_ENSG00000154917_ENST00000285208|hu_mus|FALSE|FALSE (ssRNA)
RNA: GGGAGUUCUACAGUCCGACGAUCGAGGAUGUGAGUGUGUGUAUGUGUGCGCGCGAAGGGUGUAUACACAAGUCUAUCUCUAUGUAUAAUUAUGUACACACAUAUAAAAACUAAACACGUGACGUUUCGAUUAUGCUCGUACAUCAACAGAGGAUUGAGCAUCA
B15: 13810723_13813188_1792_CDS_ENSMUSG00000022682_ENSMUST00000023363|mouse|control|control (ssRNA)
RNA: GGGAGUUCUACAGUCCGACGAUCUACCUCCUUUUUAGUAGAUUUCUUAAACUCCUGAAGCUCUUCAGCACUCCCAUCUUCCCAAAUCUGAUAAAUAGGAUCAAUGAACUUCUUUGACCUCUUAAGCACACAAGGGUCAAAGGGCAACAGAGGAUUGAGCAUCA
B16: chr22:32879901:32879902:+_ENSG00000100225_ENST00000397426|hu_mus|hu_hu_hu_mus_False|48_78 (ssRNA)
RNA: GGGAGUUCUACAGUCCGACGAUCCUCUUCCAUACUCAUGGCAUCCUGAAUUGACUCAGCUUCAAAAUUUUGACUAGGCCCUUCCAUACUGUCGUCAGUCCAGGCAUCAAAUGGGGUGGCCUGUCCUUGGGAUGAAUCAGUCCCCAACAGAGGAUUGAGCAUCA
B17: chr5:128441001:128441002:+_ENSG00000066583_ENST00000173527|hu_hu|FALSE|FALSE (ssRNA)
RNA: GGGAGUUCUACAGUCCGACGAUCGCACACAUGAGUUUCUACUCCAAAUAAUACAACACUCCUGACUCCGGGAAUCUCUGCUAAUGCCGCUUCUACUUCUGGUAAUACCAUUGAAAACUUGGUCUUUGGAAGUACCAGUUUUACCAACAGAGGAUUGAGCAUCA
B18: chr1:120459247:120459248:-_ENSG00000134250_ENST00000256646|hu_hu|FALSE|FALSE (ssRNA)
RNA: GGGAGUUCUACAGUCCGACGAUCCCGAGCCACAUCCCGGGGAAGACGAUCCAUAUGGUCUGUGAUGUCUCGAUUGGCAAAAUGGUCUAACAGGAUCUUGGCUGCUUCAUAGCUCCCCUCCCGGGCAGCAAGAAACAGAGGUGUCAACAGAGGAUUGAGCAUCA
B19: chr1:247070963:247070964:-_ENSG00000153207_ENST00000391829|hu_hu|FALSE|FALSE (ssRNA)
RNA: GGGAGUUCUACAGUCCGACGAUCCUGAUUUGUCCUGCUUAUGUAACUAAGAGUUGAAACAGCUGUUCCUGUUGGACUUACUAACUGGAAACACAGAUGGCGCCCUUGUCUCAUUACACUUUCUCUAAUGUGUGGUACUUCAGCCAACAGAGGAUUGAGCAUCA
B20: 17864358_17864478_2033_3pUTR_ENSMUSG00000041297_ENSMUST00000042365|mouse|control|control (ssRNA)
RNA: GGGAGUUCUACAGUCCGACGAUCUACCUUUGUUACUUGAAGCGGUGGCUUUGUUUUUGCUUUGUCGCUUUUGACGGUCCCACCACUUGAAGGAGAAGGUGCAUGCUCAGUUUUAAGUUUUUUGACUUCCUUCACAUGGUUUGUCAACAGAGGAUUGAGCAUCA
B21: chr13:3599227:3599228:-_ENSMUSG00000033799_ENSMUST00000096069|mus_hu|FALSE|FALSE (ssRNA)
RNA: GGGAGUUCUACAGUCCGACGAUCCAAGUAUGCUUUUAUGAGCUGGUGGUGCCAUAGUUUUAGAUUCCCUGUAUCGAAAAGCUACAAUUACAUAAGGACAGAUCUGUCUGGGUCGUUCAAUAACGGUGUUGCCUGAAAGUUCGUCAACAGAGGAUUGAGCAUCA
B22: chr19:16212804:16212805:+_ENSG00000167460_ENST00000300933|hu_mus|hu_hu_hu_mus_False|1_108 (ssRNA)
RNA: GGGAGUUCUACAGUCCGACGAUCAACAAAUAUGCAAUGAAGGAAAGAUGUAACAUGGAACAGCAUUAAAGCUCAGUCAGAAGGCACAUGGGCAACAAUGAUCACCCCAGCAUUCUCGCUUGGAAUGCUUAAAGACAGAUGUUUCAACAGAGGAUUGAGCAUCA

The target in the assay is T1, UNK ZnF1-3. Put plainly: nsRBNS (natural sequence RNA bind-n-seq); RBNS binding buffer (assumed for nsRBNS): 25 mM Tris pH 7.5, 150 mM KCl, 3 mM MgCl2, 0.01% Triton X-100, 500 ug/ml BSA, 20 U/ml SUPERase-In, 4 C; UNK is unkempt and MSI1 is Musashi-1; names of the RNAs are library labels; protein concentration not given here; high values mean tight binding.
The molecule B1 gave a binding signal of 1.32 enrichment R.

The molecule B2 gave a binding signal of 0.799 enrichment R.

In turn, B3 came in with a binding signal of 0.622 enrichment R.

Take B4: the binding signal amounted to 1.92 enrichment R.

Consider B5, for which the binding signal was 0.863 enrichment R.

B6 registered a binding signal of 2.53 enrichment R.

B7 registered a binding signal of 1.44 enrichment R.

For the molecule B8, the binding signal came to 2.86 enrichment R.

With B9, the binding signal came out at 0.668 enrichment R.

For B10, the binding signal was 0.416 enrichment R.

Consider B11, for which the binding signal was found to be 1.09 enrichment R.

B12 showed a binding signal of 1.24 enrichment R.

Molecule B13 returned a binding signal of 0.571 enrichment R.

B14 displayed a binding signal of 1.57 enrichment R.

Regarding B15, the binding signal was 1.08 enrichment R.

In turn, B16 had a binding signal of 1.09 enrichment R.

Turning to B17, the binding signal worked out at 1.46 enrichment R.

Consider B18, for which the binding signal is 0.987 enrichment R.

For the molecule B19, the binding signal stood at 0.785 enrichment R.

In turn, B20 yielded a binding signal of 0.188 enrichment R.

With B21, the binding signal worked out at 0.972 enrichment R.

B22 gave a binding signal of 1.37 enrichment R.
